In PubChem BioAssay AID1508624 (National Center for Advancing Translational Sciences (NCATS), 2021):
Out of some 48,000 compounds screened, about 120 (0.25%) were called active. About 4% were inconclusive and are not listed. Calls come from the whole dose curve; as a rule, active = well fitted activation curve with a large enough effect; inconclusive = small, poorly fitted or top-dose-only effect, or another doubt; inactive = no such curve, though single readings can be large or run the other way. The list shows a part of the results.

Test: Primary qHTS for Identification of Small Molecule Activators of Huntingtin-Antisense Promoter Activity; note: nearly all actives have a fitted effect of over 55% in size
Settings: HEK293 HTT-AS promoter firefly luciferase reporter, 24 h; series mostly up to 57.5 µM; activity change, positive = activation: at the top concentration
Description: Assay Provider: Russell L. Margolis M.D.
Department Neurology, Johns Hopkins University School of Medicine, Baltimore, MD
Huntington's Disease (HD) is a neurodegenerative disorder caused by a CAG repeat expansion in exon 1 of huntingtin (HTT). While there are currently no disease-modifying treatments for HD, recent efforts have focused on development of nucleotide-based therapeutics to lower HTT expression. As an alternative to siRNA or oligonucleotide methods, we hypothesized that suppression of HTT expression might be accomplished by small molecules that either (1) directly decrease HTT expression by suppressing HTT promoter activity or (2) indirectly decrease HTT expression by increasing the promoter activity of HTT-AS, the gene antisense to HTT that appears to inhibit expression of HTT.
We developed and employed a high throughput screen for modifiers of HTT and HTT-AS promoter activity using luminescent reporter HEK293 cells; of the 52,041 compounds tested, we identified 898 replicable hits. We used a rigorous stepwise approach to assess compound toxicity and the capacity of the compounds to specifically lower huntingtin protein in 5 different cell lines, including HEK293 cells, HD lymphoblastoid cells, mouse primary neurons, HD iPSCs differentiated into cortical-like neurons, and HD hESCs. We found no compounds which were able to lower huntingtin without lowering cell viability in all assays, though the potential efficacy of a few compounds at non-toxic doses could not be excluded.
SEQUENCE No. (1, 2, 3, etc.); […] (e.g., Cells, Incubation, Reagent, etc.); VALUE and DESCRIPTION.
1; Reagent; 4 uL; 2,500 Hek293 luciferase reporter cells per wells
3; Compound; 23 nL; Control inhibitor / compound library
5; Reagent; 2.5 uL; Firefly Luc reagent; Dual-Glo Luciferase Reporter Assay System (Promega)
6; Time; 10 min; room temperature incubation
7; Detection; Luminescence; FLuc
NOTES (numbers refer to sequence above)
1; High-throughput screening, measuring luminescence from a Hek293 luciferase reporter, was performed in 1,536 well white-walled tissue-culture treated plates. 2,500 cells were plated in 4 µL of Opti-MEM per well using a Multidrop Combi Reagent Dispenser (ThermoFisher).
2; Assay plates were cultured for 24 hours.
3; Control inhibitor (PTC124; final concentration of 50 uM) and compound library (at final concentrations of 460 nM - 57.5 uM) were added to the assay plate using the Kalypsis Pintool Robotic System equipped with 1536 pinheads.
4; Cells were then incubated for 24 hours at 37 degrees C prior to luminescence measurements.
5; In all cases, luminescence was measured using the Dual-Glo Luciferase Reporter Assay System (Promega) following the manufacturer's instructions.
6; Room temperature incubation.
7; Luminescence signal was obtained using the PerkinElmer ViewLux plate reader. Results were normalized to vehicle control (0% activity) and zero RLU (-100% activity).

Activity change, positive = activation, inactive:
CCOC(=O)c1ccc2c(c1)[C@@H]1C=CC[C@@H]1[C@H](c1cccc(OC)c1OC)N2 10.7%
CCCC(=O)C1=C(c2cccc(OC)c2)N(C(=O)CCC)n2c(C)nnc2S1 16.1%
Cc1cc(C)c2sc(N(Cc3cccnc3)C(=O)CCOc3ccccc3)nc2c1 -24.3%
Cc1ccc(-n2nc3ccc(NC(=O)Cc4ccc(Cl)cc4)cc3n2)cc1 -10.3%
CCOC(=O)c1c(NC(=O)C(C)Sc2cn(CCNC(=O)c3ccccc3OC)c3ccccc23)sc2c1CCC2 (configuration not stated) -37.7%
COC(=O)c1sc2cccc(F)c2c1S(=O)(=O)NCc1ccc(Cl)cc1 -6.85%
CCOC(=O)COc1ccc(CC)cc1C(=O)c1ccn2nc(-c3ccc(Cl)cc3)cc2n1 -10.7%
COc1cccc(CNC(=O)CSC2=Nc3ccccc3C3=NC(C)C(=O)N23)c1OC (configuration not stated) 6.61%
CCOc1ccc(NC(=O)Cn2c(=O)n(CCCC(=O)NCc3ccc4c(c3)OCO4)c(=O)c3ccccc32)cc1 -12.2%
Cc1ccc(CSc2ncc(Cl)c(C(=O)Oc3ccc(F)cc3)n2)cc1 16.4%
COc1ccccc1N1CCN(CCCNC(=O)c2cnn(-c3ccc(C)c(C)c3)c2C2CCN(C(=O)OC(C)(C)C)CC2)CC1 -33.1%
CCCCS(=O)(=O)c1oc(-c2ccc(F)cc2)nc1S(=O)(=O)c1ccccc1 -94.1%
Fc1ccc(-c2cc(C(F)(F)F)nc(NCc3ccccc3)n2)cc1 -18.2%
O=C(c1ccc2c(c1)N(Cc1ccc(F)cc1)C(=O)c1ccccc1S2(=O)=O)N1CCN(c2ccccn2)CC1 -36.4%
COc1ccccc1CNC(=O)c1cnc2c(-c3ccccc3)c(C)nn2c1C 4.77%
CCCCCC(=O)N(c1ccc(OCC)cc1)S(=O)(=O)c1ccc2c(c1)n(C)c(=O)n2C -12.6%
Cc1ccc(CCNC(=O)c2ccc(CS(=O)(=O)Cc3cccc(C)c3)o2)cc1 -16.4%
COc1ccc(Cn2ccc3nc(C)c(C(=O)N4CCN(c5ccccc5F)CC4)cc3c2=O)cc1 -27.2%
Cc1ccc(NC(=O)Cn2cc3c(n2)CCC(C)C3)cc1C (configuration not stated) -12.3%
O=C(Nc1cc(C(F)(F)F)cc(C(F)(F)F)c1)c1cc(Cl)ccc1O -91.2%
CSc1ccc(CNC(=O)CN2C(=O)C3CCCCN3c3ccc(C(=O)N4CCCC4)cc32)cc1 (configuration not stated) -10.4%
CCOC(=O)C1CCN(C(=O)c2ccc3c(c2)sc2nc(-c4ccc(C)cc4)cn23)CC1 2.92%
COc1ccc(NC(=O)c2cc(S(=O)(=O)NCCC3=CCCCC3)ccc2F)cc1 -69.9%
COC(=O)c1cc2sc(C)cc2n1CC(=O)Nc1cccc(SC)c1 5.52%
O=S(=O)(NCc1nc2cccnc2n1Cc1ccc(F)cc1)c1ccc(Cl)s1 -24.2%
COc1ccc(-c2nc3cc(C(C)C)ccc3o2)cc1NC(=O)c1ccc(C)c(Cl)c1 3.98%
CCc1ccc(NC(=O)C2CCN(S(=O)(=O)c3c(C)noc3/C=C/c3ccco3)CC2)cc1 -13.3%
FC(F)(F)c1ccc(-c2noc(-c3ccccc3Br)n2)cc1 -27.2%
CCC12CN3CC(C)(CN(C1)C3c1c[nH]c3ccc(OC)cc13)C2=O (configuration not stated) -5.63%
CCN(CC)C(=O)c1sc2c(c1C)c(=O)n(-c1ccc(C)c(C)c1)c(=O)n2Cc1cccc(Cl)c1 -29.9%
CCOC(=O)C1CCCN(C(=O)CCS(=O)(=O)c2cc3c(cc2Cl)NC(=O)CO3)C1 (configuration not stated) -17.7%
CCC(Sc1nc2cc3c(cc2c(=O)n1CCCC(=O)NCc1ccc(OC)cc1)OCO3)C(=O)NCCCOC (configuration not stated) -2.56%
Cc1ccc(OCC(=O)Nc2ccc3nc(SCC(=O)N4CCOCC4)sc3c2)cc1C -16.3%
Cc1ccc2cccc(NC(=O)c3ccc(C#N)cc3F)c2n1 -13.7%
Cc1ccccc1NC(=O)Cn1c(=O)n(CCC(=O)NCc2ccc3c(c2)OCO3)c(=O)c2sccc21 -18.7%
CC(=O)N1CCc2cc(CNS(=O)(=O)c3ccc(C(C)(C)C)cc3)ccc21 -34%
O=C1CN(C(=O)c2ccc(S(=O)(=O)N3CCCCC3)cc2)C(c2ccc(F)cc2)c2cc(Br)ccc2N1 (configuration not stated) -24.1%
Cc1ccccc1C(=O)NC1(C(F)(F)F)N=C(c2ccccc2)N(Cc2ccccc2)C1=O (configuration not stated) -18.4%
COc1cccc(-c2cc(C(F)(F)F)n3nc(C)c(-c4ccccc4)c3n2)c1 -4.84%
O=C(COc1ccccc1[N+](=O)[O-])Nc1cc(-c2nc3cc(Cl)ccc3o2)ccc1Cl 10.7%
COC(=O)c1ccc(Oc2nc3c(c(=O)n(C)c(=O)n3C)n2C(C)C)cc1 1.73%
CCc1ccccc1N(C)C(=O)c1nn(C)c2c1CSc1ccccc1-2 1.88%
CCCCNC(=O)CSc1nc2cc3c(cc2c(=O)n1CCCCCC(=O)NCCc1ccc(OC)c(OC)c1)OCO3 -3.74%
Cc1ccc2nc(N3CCC(C(=O)NCc4ccc(F)cc4)CC3)[nH]c2c1 1.54%
Cc1ccc2nc(COc3cccc(NC(=O)c4cccc(Cl)c4)c3)cc(=O)n2c1 -2.9%
Cc1cc(C)c(S(=O)(=O)NCc2csc(-c3ccccc3)n2)c(C)c1 -29.3%
Cc1c(CC(=O)NCCc2ccccc2F)c(=O)oc2cc(O)c(Cl)cc12 -7.5%
Cc1ccc(-n2ncc3c(N(CC(C)C)CC(C)C)ncnc32)c(C)c1 -18.7%
Cc1ccc(NC(=O)c2c(C)oc3ccc(O)c(CN4CCCCCC4)c23)cc1 -18.7%
CC(C)S(=O)(=O)c1oc(-c2cccs2)nc1S(=O)(=O)c1ccc(F)cc1 -93.5%
Cc1ccc(CCNC(=O)c2c(C)oc3nc(C)nc(N4CCOCC4)c23)cc1 0.743%
CCN(CCCNC(=O)c1cc(Nc2ccc(OC)cc2OC)nc2ccccc12)c1cccc(C)c1 -28.1%
Cn1cc(-c2cc3n(n2)CCC(=O)N3CC(=O)NCc2ccc(Cl)cc2)c2ccccc21 -22.6%
COc1ccc(-c2onc(C)c2C)cc1S(=O)(=O)N1CCN(c2ccc(Cl)cc2)CC1 -11.9%
O=C(C=Cc1cccnc1)NCCCCC1CCN(C(=O)c2ccccc2)CC1 -27.3%
CC(C)OC(=O)c1c(NC(=O)COc2cccc(Br)c2)sc2c1CCCC2 7.11%
O=C(CSc1nc2c([nH]c3ccccc32)c(=O)n1-c1ccccc1)N1CCOCC1 -8.93%
CC(CNC(=O)C1CCN(S(=O)(=O)c2ccc3c(ccn3C)c2)CC1)c1ccccc1 (configuration not stated) -22.8%
CCN(CC)CCn1c(-c2ccccc2)csc1=Nc1ccccc1 16%
Nc1nonc1C(=O)NCCNCc1cccc(Cl)c1Cl -6.7%
O=C1CC(c2cccc(O)c2)c2cc3c(cc2N1)OCO3 (configuration not stated) -13.2%
CCCCN(CC)CCCNC(=O)C1CCCN(c2ncnc3c2nc2n3CCCCC2)C1 (configuration not stated) -9.67% [at 11.5 µM, percent change from vehicle, -100% = no light]
COc1ccc(NC(=O)Cn2c(=O)n(Cc3ccccc3Cl)c(=O)c3cc(OC)c(OC)cc32)cc1OC -4.77%
CCOc1cccc(NC(=O)C2CC(=O)N(C)C(=Nc3ccc(F)cc3)S2)c1 (configuration not stated) -6.89%
O=C(c1ccc(Br)s1)N(Cc1cccnc1)c1nc2ccc(F)cc2s1 12.4%
CCOc1ccccc1NC(=O)CN1C(=O)COc2ccc(S(=O)(=O)N3CCCCC3)cc21 -7.4%
Cc1ccc(N2C(=O)CSC23C(=O)N(CC(=O)NC2CCCCC2)c2ccccc23)cc1C (configuration not stated) -7.4%
Oc1c(Br)cc(Br)c2cccnc12 -12%
Nc1nc(=O)n([C@@H]2O[C@H](CO)[C@@H](O)[C@@H]2F)cc1I -12.5%
CCOC(=O)c1c(C)oc2ncnc(Nc3cc(Cl)ccc3OC)c12 -3.59%
Cc1ccc2nc(COc3ccccc3NC(=O)COc3ccccc3Cl)cc(=O)n2c1 -8.21%
CSc1ncc(C(=O)NCc2ccc(C)cc2)c(-c2ccccc2)n1 -2.1%
Cc1ccc(CNC(=O)C2CCN(S(=O)(=O)c3c(C)noc3/C=C/c3c(C)cc(C)cc3C)CC2)cc1 6.15%
Cc1ccc(S(=O)(=O)C(CNC(=O)Cc2ccc(Cl)cc2)c2cccs2)cc1 (configuration not stated) -28.8%
CCOc1ccc(CNC(=O)c2ccc3c(c2)nnn3C2CCCC2)cc1 4.86%
Cc1cccc(Cn2c(=O)n(Cc3ccc4c(c3)OCO4)c(=O)c3oc4ccccc4c32)c1 -13.8%
CCc1ccccc1NC(=O)c1cc2nc(-c3ccc(OC)c(OC)c3)cc(C(F)(F)F)n2n1 -9.07%
COc1ccccc1N1CCN(C(=O)Nc2cn(CC(C)C)c(=O)c3ccccc23)CC1 -6.62%
CCOCCCNC(=O)c1c(NC(=O)c2cc(=O)c3ccccc3o2)sc2c1CCC2 2.85%
CC(C)C(=O)Nc1cccc(C(=O)Nc2nnc(CC(C)(C)C)s2)c1 14.7% [at 11.5 µM, percent change from vehicle, -100% = no light]
COC(=O)c1ccc(NC(=O)Cn2c(=O)nc(-c3ccccc3)c3ccccc32)cc1 -22.9%
COc1cc2ccccc2cc1C(=O)Nc1ccc2oc(-c3ccc(Cl)cc3)nc2c1 -20.3%
O=C(Nc1ccc(C(=O)OCc2cc(=O)n3c4c(sc3n2)CCCC4)cc1)c1ccc(Cl)cc1 2.57%
CC(C)c1ccc(NC(=O)Nc2csc3c2CCCC3)cc1 -30.4%
Cc1ccc2c(=O)cc(C(=O)Nc3c(C(=O)Nc4cccc(Cl)c4)oc4ccccc34)oc2c1 -15.7%
CCCCN(C)CC(O)Cn1cc(/C=C/C(=O)c2ccc(C)cc2)c2ccccc21 (configuration not stated) -28.8%
COc1ccc(NC(=O)c2c(NCc3cccs3)sc3c2CCCC3)cc1 -10.9%
Cc1ccc(-n2c(SCC(=O)Nc3ccc4c(c3)OCCO4)nc3c([nH]c4ccccc43)c2=O)cc1 -12.8%
Cc1cccc(NS(=O)(=O)c2nnc(NC(=O)c3cccc(C)c3)s2)c1 -10.3%
CCOC(=O)c1ccc(NC(=O)CN2CCCCC2)cc1 19.5%
Cc1ccc(OCC(=O)Nc2sc3c(c2C(N)=O)CCCC3)c(C(C)(C)C)c1 -11.3%
COCCNC(=O)c1ccc(-c2nc(CN3CCc4ccccc43)c(C)o2)cc1 -34.4%
